Test results from the RNAGym collection of RNA variant scans (doi:10.1073/pnas.2313332121).
Variants at the floor of the assay are shown more often than the library holds them.

B1: TPR 5TU (parent)
chain: GGAUCUUCUCGAUCUAACAAAAAAGACAAAUCUGCCACAAAGCUUGAGAGCAUCUUCGGAUGCAGAGGCGGCAGCCUUCGGUGGCGCGAUAGCGCCAACGUUCUCAACUAUGACACGCAAAACGCGUGCUCCGUUGAAUGGAGUUUAUCAUG

Variants of: B1
Test: polymerase ribozyme fitness, log enrichment relative to wild type (log ratio); higher = more active; in vitro selection for triplet polymerase activity
Summary of the method: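 Mutant libraries of both subunits of a heterodimeric triplet polymerase ribozyme were PCR-built, transcribed, and selected once in triplicate, with frozen incubation at −7 °C and capture of gel-excised extended constructs on streptavidin beads before RT-PCR. Illumina sequencing of input and output libraries was filtered to genotypes with ≥10 input reads and ≥1 read per output. Fitness is the logarithm of genotype enrichment over wild-type enrichment, using inverse-variance-weighted replicate averages. The logarithm is base 2.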

A12U A17U A22C G34C U55A U56A C57U A64C C95U and A12U A17U A28C C43G C103G cannot be ordered by “polymerase ribozyme fitness (log ratio)” value: ≤ -4.2 for the first, ≤ -4.2 for the second.

A12U A19C U44G U148C and A12U A19U C35A U61G C69U U78G G80C A97C G126U cannot be ordered by “polymerase ribozyme fitness (log ratio)” value: ≤ -4.2 for the first, ≤ -4.2 for the second.

A12U A20C A29C U78G A91U and A12U A20G C76A A97U C103A cannot be ordered by “polymerase ribozyme fitness (log ratio)” value: ≤ -4.2 for the first, ≤ -4.2 for the second.

A12U A20U A21C C87G A142G and A12U A20U C36A A119U cannot be ordered by “polymerase ribozyme fitness (log ratio)” value: ≤ -4.2 for the first, ≤ -4.2 for the second.

A12U A20U G83U C129A and A12U A21G C35U G86A C105G A107U C149A A150G cannot be ordered by “polymerase ribozyme fitness (log ratio)” value: ≤ -4.2 for the first, ≤ -4.2 for the second.

A12U A21U C36U G42C C96G U104A and A12U A22C C57A G80C C85U G117A U130G cannot be ordered by “polymerase ribozyme fitness (log ratio)” value: ≤ -4.2 for the first, ≤ -4.2 for the second.

A12U A22G A29C G42U C87U C93A and A12U A24C C27U G58C G84A A98G cannot be ordered by “polymerase ribozyme fitness (log ratio)” value: ≤ -4.2 for the first, ≤ -4.2 for the second.

A12U A24C C63G C85U C87A G94C A107G G126A A137G G141U and A12U A26C A29G C38A G88C G92U U104C A115U cannot be ordered by “polymerase ribozyme fitness (log ratio)” value: ≤ -4.2 for the first, ≤ -4.2 for the second.

A12U A28C C57U G68A G92C G126U and A12U A28U U44A A52U C57A C69G cannot be ordered by “polymerase ribozyme fitness (log ratio)” value: ≤ -4.2 for the first, ≤ -4.2 for the second.

Compared with A12U A28U U44G C93A U102A, A12U A28U U102A U139G U148G is higher in “polymerase ribozyme fitness (log ratio)” value: ≤ -4.2 for the first, -4.1 for the second.

A12U A29G U53A C69G C85G G94A G143A C149U and A12U A29U A37U C93G G112C G136C cannot be ordered by “polymerase ribozyme fitness (log ratio)” value: ≤ -4.2 for the first, ≤ -4.2 for the second.

A12U A30G A39C G62C C79A C85G and A12U A37C U56A C76G A98G C114U U151G cannot be ordered by “polymerase ribozyme fitness (log ratio)” value: ≤ -4.2 for the first, ≤ -4.2 for the second.

A12U A37G C69G A122C G126A A150G and A12U A39C A52G C57G cannot be ordered by “polymerase ribozyme fitness (log ratio)” value: ≤ -4.2 for the first, -4.2 for the second.

A12U A39C U55A A107U A115G and A12U A41C G59C G71U C87U U148A cannot be ordered by “polymerase ribozyme fitness (log ratio)” value: ≤ -4.2 for the first, ≤ -4.2 for the second.

A12U A47G G50A G86A C93U G136A A150G and A12U A49C G100U U146G cannot be ordered by “polymerase ribozyme fitness (log ratio)” value: ≤ -4.2 for the first, ≤ -4.2 for the second.

A12U A52C G62A U78G C93U and A12U A52G A73U C93G A138G A142C cannot be ordered by “polymerase ribozyme fitness (log ratio)” value: ≤ -4.2 for the first, ≤ -4.2 for the second.

A12U A52G G94A G141C U148A and A12U A60G U82G A91C cannot be ordered by “polymerase ribozyme fitness (log ratio)” value: ≤ -4.2 for the first, ≤ -4.2 for the second.

Compared with A12U A97U, A12U C14A A28G C79A U111G G133A G136U G140U is lower in “polymerase ribozyme fitness (log ratio)” value: -0.954 for the first, ≤ -4.2 for the second.

A12U C14G A91G C93U and A12U C14G C38U A47U A52G C54A C57U C75A A91G cannot be ordered by “polymerase ribozyme fitness (log ratio)” value: ≤ -4.2 for the first, ≤ -4.2 for the second.

Compared with A12U C18A C36U C57A C95U A97G A98U C125U, A12U C27G A28C C54G A91U U101A U104G C116U is lower in “polymerase ribozyme fitness (log ratio)” value: -3.95 for the first, ≤ -4.2 for the second.

A12U C32G A49C G50A C75G C95U A122G C129A and A12U C35A U44A G92C U127A C129G G143A U151C cannot be ordered by “polymerase ribozyme fitness (log ratio)” value: ≤ -4.2 for the first, ≤ -4.2 for the second.

A12U C35A U78G G92A and A12U C35G A52G C54G C105G C125U G140U A142U A147G cannot be ordered by “polymerase ribozyme fitness (log ratio)” value: ≤ -4.2 for the first, ≤ -4.2 for the second.

A12U C35G A60C U61A C76A G124U and A12U C38U U77A G88A U90A G92A A98G cannot be ordered by “polymerase ribozyme fitness (log ratio)” value: ≤ -4.2 for the first, ≤ -4.2 for the second.

Going from A12U C43U C95A to A12U C51U, the “polymerase ribozyme fitness (log ratio)” value rises from ≤ -4.2 to -2.53.

First: A12U C51U C57G C85U A91G U104G G136A
Second: A12U C54U G86C
The “polymerase ribozyme fitness (log ratio)” value of the first is lower: ≤ -4.2 for the first, -3.04 for the second.

Compared with A12U C54U U134A U145G, A12U C57G G65A is higher in “polymerase ribozyme fitness (log ratio)” value: -3.56 for the first, -3.18 for the second.

First: A12U C85A U139G
Second: A12U C85G C123U U127A
The “polymerase ribozyme fitness (log ratio)” value of the first is higher: -0.992 for the first, ≤ -4.2 for the second.

Going from A12U C87A to A12U C87G A89G A113G C131U, the “polymerase ribozyme fitness (log ratio)” value falls from -4.15 to ≤ -4.2.

First: A12U C96U U144G
Second: A12U C116G
The “polymerase ribozyme fitness (log ratio)” value of the first is higher: 0.0703 for the first, -0.634 for the second.

A12U G25C A47G U56A C93G C108G and A12U G25C C35U G81A C85U cannot be ordered by “polymerase ribozyme fitness (log ratio)” value: ≤ -4.2 for the first, ≤ -4.2 for the second.

A12U G42A C85U C99G and A12U G42C C51U C93U C123A G124U cannot be ordered by “polymerase ribozyme fitness (log ratio)” value: ≤ -4.2 for the first, ≤ -4.2 for the second.

First: A12U G46C A97U A110G G128C
Second: A12U G46C C69U
The “polymerase ribozyme fitness (log ratio)” value of the first is lower: ≤ -4.2 for the first, -3.08 for the second.

A12U G48C A66U G71A C87U and A12U G48U A49C C69G G86A C93U U139G A150G cannot be ordered by “polymerase ribozyme fitness (log ratio)” value: ≤ -4.2 for the first, ≤ -4.2 for the second.

A12U G48U G88A C95U U134G U151G and A12U G50A G80C C85U C95A cannot be ordered by “polymerase ribozyme fitness (log ratio)” value: ≤ -4.2 for the first, ≤ -4.2 for the second.

Compared with A12U G50U C72U G126A, A12U G58A is higher in “polymerase ribozyme fitness (log ratio)” value: -1.33 for the first, -0.217 for the second.

First: A12U G59A C75G U127G
Second: A12U G59C G92A A107C G124C A142U C149A
The “polymerase ribozyme fitness (log ratio)” value of the first is higher: -4.12 for the first, ≤ -4.2 for the second.

A12U G81C G84A A115U and A12U G92A A98G C125G G128U cannot be ordered by “polymerase ribozyme fitness (log ratio)” value: ≤ -4.2 for the first, ≤ -4.2 for the second.

First: A12U G141C
Second: A12U U13G A40U C69U C85G U104G U146G
The “polymerase ribozyme fitness (log ratio)” value of the first is higher: -0.54 for the first, ≤ -4.2 for the second.

A12U U15C A30C U31G G46C U77G A115C and A12U U44A C93U A119C cannot be ordered by “polymerase ribozyme fitness (log ratio)” value: ≤ -4.2 for the first, ≤ -4.2 for the second.

A12U U44C G68U and A12U U53A U56A A66C A113C cannot be ordered by “polymerase ribozyme fitness (log ratio)” value: ≤ -4.2 for the first, ≤ -4.2 for the second.

First: A12U U55A G59U A60G G94A
Second: A12U U56A A115G
The “polymerase ribozyme fitness (log ratio)” value of the first is higher: -0.00322 for the first, -2.11 for the second.

In the case of A12U U56A C93U A147G, the “polymerase ribozyme fitness (log ratio)” value is reported as -1.6.
